This passage reports cell viability results from the supplement of paper PMC9588766.

Where a name gives a salt, the structure may show the parent alone. ± gives the standard deviation of the averaged measurements. Over roughly 2,000 compounds, “cell viability relative to DMSO control (compound alone)” has its median near 0.98; the lowest 2% begin near 0.23. This is one part of the list.

For the test, the system named is PDC-DUC18828. The experiment in a line: cell viability relative to DMSO control (compound alone) (fraction); PDC-DUC18828 is a patient-derived cholangiocarcinoma cell line; higher = less growth inhibition. The note with it: 1 µM; 72 h. The procedure:
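Selleck Bioactive library screen in the patient-derived FGFR2-G3BP2 fusion-positive ICC cell line PDC-DUC18828 (500 cells/well). Each compound was tested at 1 uM alone, in triplicate, for 72 h. Viability was read by CellTiter-Glo and normalised to plate DMSO controls.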
In turn, `Cc1ccc(-n2nc(C(C)(C)C)cc2NC(=O)Nc2ccc(OCCN3CCOCC3)c3ccccc23)cc1` [BIRB 796 (Doramapimod)] had a cell viability of 1.07 ± 0.031.

In the case of `Cc1cc(OCc2nnc(SC3CCCC3)n2-c2cccnc2)ccc1-c1ccc(S(C)(=O)=O)cc1`, the cell viability turned out to be 0.864 ± 0.023.

As to `CNC(=O)c1ccc(C)c(-n2c(C)cc(OCc3ccc(F)cc3F)c(Br)c2=O)c1`, the cell viability is 0.902 ± 0.021.

`CC(C)C[C@H](NC(=O)CNC(=O)c1cc(Cl)ccc1Cl)B1OC(=O)C(CC(=O)O)(CC(=O)O)O1` registered a cell viability of 0.0219 ± 0.0016.

As for `CCN(CC)CCCCNc1ncc2cc(-c3cc(OC)cc(OC)c3)c(NC(=O)NC(C)(C)C)nc2n1`, the cell viability was found to be 0.759 ± 0.044.

On to `CC[C@@H](CO)NCCN[C@@H](CC)CO` [Ethambutol HCl], for which the cell viability amounted to 0.983 ± 0.018.

Consider `CCCOc1ccc(C(=O)OCCN(CC)CC)cc1N` [Proparacaine HCl], for which the cell viability was determined as 0.936 ± 0.018.

Turning to `CC(=O)OCC(=O)[C@H]1CC[C@H]2[C@@H]3CCC4=CC(=O)CC[C@]4(C)[C@H]3CC[C@]12C` [Deoxycorticosterone acetate], the cell viability was 0.968 ± 0.047.

The compound `Oc1cccc(-c2nc(N3CCOCC3)c3oc4ncccc4c3n2)c1` had a cell viability of 0.503 ± 0.11.

Compound `Cn1cc(-c2ccc3c(c2)CCN3C(=O)Cc2cccc(C(F)(F)F)c2)c2c(N)ncnc21` showed a cell viability of 0.937 ± 0.043.

`C#C[C@]1(O)CC[C@H]2[C@@H]3CCC4=CC(=O)CC[C@@H]4[C@H]3CC[C@@]21CC` [Levonorgestrel] had a cell viability of 1.02 ± 0.021.

Compound `N#C/C(=C\c1ccc(O)c(O)c1)C(=O)NCc1ccccc1` [AG-490 (Tyrphostin B42)] gave a cell viability of 1.03 ± 0.013.

In the case of `O=C(/C=C/c1ccc(O)c(O)c1)O[C@@H]1C[C@](O)(C(=O)O)C[C@@H](O)[C@H]1O` [Chlorogenic Acid], the cell viability amounted to 1.04 ± 0.039.

`C[C@@H]1COC(Nc2ccc3ncnc(Nc4ccc(OCc5nccs5)c(Cl)c4)c3c2)=N1` [Varlitinib] returned a cell viability of 0.999 ± 0.046.

`CCOC(=O)C1=C(N)Oc2ccc(Br)cc2C1C(C#N)C(=O)OCC` (stereo not drawn) yielded a cell viability of 1.1 ± 0.11.

Consider `O=[N+]([O-])c1ccc(Nc2nc(N3CCOCC3)nc(N3CCOCC3)n2)cc1`, for which the cell viability stood at 1 ± 0.011.

As for `CCCCOc1cc(C(=O)OCCN(CC)CC)ccc1N` [Oxybuprocaine HCl], the cell viability is 0.985 ± 0.02.

`O=C1O[C@H]([C@@H](O)CO)C([O-])=C1O.[Na+]` [Sodium ascorbate] yielded a cell viability of 0.984 ± 0.025.

On to `N#C/C(=C1/SC[C@@H](c2ccc(Cl)cc2Cl)S1)n1ccnc1` [Luliconazole], for which the cell viability turned out to be 1.02 ± 0.027.

In the case of `CC(C)Oc1ccc2c(=O)c(-c3ccccc3)coc2c1` [Ipriflavone (Osteofix)], the cell viability was 0.921 ± 0.017.

Regarding `CCCCOc1ccc(C(=O)Nc2ccc(F)cc2F)cc1`, the cell viability is 1.04 ± 0.074.

On to `Nc1nc(OCc2cc(Br)cs2)c2[nH]cnc2n1` [Lomeguatrib], for which the cell viability was determined as 1.02 ± 0.076.

Compound `Clc1ccc2nsnc2c1NC1=NCCN1` [Tizanidine HCl] displayed a cell viability of 1.03 ± 0.014.

As to `Cc1cc(Nc2cc(N3CCN(C)CC3)nc(Sc3ccc(NC(=O)C4CC4)cc3)n2)n[nH]1` [VX-680 (Tozasertib, MK-0457)], the cell viability is 0.877 ± 0.035.

Regarding `Cc1cc(C(C)Nc2ccccc2)c2nc(N3CCOCC3)cc(=O)n2c1` (stereo not drawn), the cell viability is 0.878 ± 0.046.

As for `NC1(Cc2ccc(Cl)cc2)CCN(c2ncnc3[nH]ccc23)CC1`, the cell viability turned out to be 1.06 ± 0.053.

`N[C@H]1CC[C@H](N[C@@H]2C[C@H]2c2ccccc2)CC1` yielded a cell viability of 0.952 ± 0.019.

Regarding `Clc1ccc(C2(c3ccc(-c4cn[nH]c4)cc3)CCNCC2)cc1`, the cell viability stood at 0.924 ± 0.038.

On to `CNC(=O)[C@@H](NC(=O)[C@H](CC(C)C)[C@H](O)C(=O)NO)C(C)(C)C` [Marimastat(BB-2516)], for which the cell viability is 1.05 ± 0.031.

On to `C[C@]12CC[C@@H]3c4ccc(O)cc4C[C@@H](CCCCCCCCC[S+]([O-])CCCC(F)(F)C(F)(F)F)[C@H]3[C@@H]1CC[C@@H]2O` (stereo partly drawn) [Fulvestrant], for which the cell viability was 0.966 ± 0.05.

`C=C[C@](C)(O)CC[C@@H]1[C@@]2(C)CCCC(C)(C)[C@@H]2CC[C@@]1(C)O` [Sclareol] showed a cell viability of 1.08 ± 0.048.

Compound `COC(=O)[C@H](Cc1ccccc1)NC(=O)[C@@H](N)CC(=O)O` [Aspartame] registered a cell viability of 1.03 ± 0.055.

With `CCS(=O)(=O)c1cccc(-c2cc(C(=O)NC3CCN(C)CC3)c(C)c3[nH]c4ncc(C)cc4c23)c1`, the cell viability worked out at 0.323 ± 0.03.

As for `OCCn1cc(-c2ccc3c(c2)CC/C3=N\O)c(-c2ccncc2)n1`, the cell viability turned out to be 1.05 ± 0.075.

Compound `CN1CCc2nc(C(=O)N[C@@H]3C[C@@H](C(=O)N(C)C)CC[C@@H]3NC(=O)C(=O)Nc3ccc(Cl)cn3)sc2C1` [Edoxaban] had a cell viability of 1.01 ± 0.05.

Compound `CC[C@H]1OC(=O)[C@H](C)[C@@H](O[C@H]2C[C@@](C)(OC)[C@@H](O)[C@H](C)O2)[C@H](C)[C@@H](O[C@@H]2O[C@H](C)C[C@H](N(C)C)[C@H]2O)[C@](C)(O)C[C@@H](C)CN(C)[C@H](C)[C@@H](O)[C@]1(C)O` [Azithromycin] yielded a cell viability of 0.983 ± 0.016.

The compound `CN[C@H]1CC[C@@H](c2ccc(Cl)c(Cl)c2)c2ccccc21` [Sertraline HCl] displayed a cell viability of 0.973 ± 0.02.

Compound `Nc1ccc(S(=O)(=O)Nc2nccs2)cc1` [Sulfathiazole] came in with a cell viability of 0.913 ± 0.039.

The compound `O=C(O)c1cccc(-c2noc(-c3ccccc3F)n2)c1` [Ataluren (PTC124)] yielded a cell viability of 0.931 ± 0.054.

As for `Cc1ccc(-c2cc(C(F)(F)F)nn2-c2ccc(S(N)(=O)=O)cc2)cc1` [Celecoxib], the cell viability came to 0.996 ± 0.018.

Compound `CC(C)[N+]1(C)[C@@H]2CC[C@H]1C[C@@H](OC(=O)C(CO)c1ccccc1)C2` (stereo partly drawn) [Ipratropium Bromide] yielded a cell viability of 1.03 ± 0.032.

In turn, `C=C[C@]1(C)C[C@@H](OC(=O)CSC(C)(C)CNC(=O)[C@H](N)C(C)C)[C@]2(C)[C@H](C)CC[C@]3(CCC(=O)[C@H]32)[C@@H](C)[C@@H]1O` [Valnemulin HCl] had a cell viability of 0.959 ± 0.027.

`Cc1c(-c2ccc(O)cc2)n(Cc2ccc(OCCN3CCCCCC3)cc2)c2ccc(O)cc12` [Bazedoxifene HCl] showed a cell viability of 1.06 ± 0.053.

Turning to `Cc1c(-c2ccc(O)cc2)n(Cc2ccc(OCCN3CCCCCC3)cc2)c2ccc(O)cc12` [Bazedoxifene Acetate], the cell viability came to 0.995 ± 0.044.

`CCc1cc2c(cc1CC)CC(NC[C@H](O)c1ccc(O)c3[nH]c(=O)ccc13)C2` [Indacaterol Maleate] gave a cell viability of 0.891 ± 0.059.

Regarding `CCN(CC)CCNC(=O)c1ccc(N)cc1` [Procainamide HCl], the cell viability amounted to 1.01 ± 0.049.

`NC[C@H](O)c1ccc(O)c(O)c1` [Noradrenaline bitartrate monohydrate] registered a cell viability of 1.1 ± 0.044.

`CC(C=CC1(O)C(C)=CC(=O)CC1(C)C)=CC(=O)O` (stereo not drawn) [Abscisic Acid (Dormin)] came in with a cell viability of 1.02 ± 0.1.
